Out of some 420,000 compounds screened, about 64,000 (15%) were called active. This list was built around the results that the source calls inconclusive (neither active nor inactive); the mix of calls is not that of the screen. Calls follow the shape of the dose curve; as a rule, active = well fitted inhibition curve with a large enough effect; inconclusive = small, poorly fitted or top-dose-only effect; inactive = flat fitted curve, though single readings scatter. No potency is given beside an inconclusive call; the fits are too rough.
Assay: qHTS for Inhibitors of human tyrosyl-DNA phosphodiesterase 1 (TDP1): qHTS in cells in absence of CPT; also: nearly all actives have a fitted effect of over 55% in size
Details: DT40 Tdp1-/- hTDP1 cells, no CPT, ATP luminescence, 48 h; activity change, negative = growth inhibition: at 46.2 µM (top of the series) unless noted
Method in brief: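 Compound effects on proliferation are scored in DT40 Tdp1-/-;hTDP1 cells in the absence of CPT. ATP levels (CellTiter-Glo luminescence) are recorded after a ≥48 hr, 37 °C incubation.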
% is scaled to controls: 0 for no effect and ±100 for the full control effect; potency is read from the fitted curve at half-maximal effect; tags tell the direction and shape of the fitted curve.

SMILES | Potency | activity change, negative = growth inhibition
Cc1ccc2c(c1)N(C(=O)CSc1nncn1C)C(C)(C)c1ssc(=S)c1-2 | inconclusive [inhibitor, single point] | –
COc1ccccc1NS(=O)(=O)c1cc(C(=O)NCCCN2CCCC2=O)ccc1C | – | inactive: -0.352%
CCOC(=O)CN=C/C(C(=O)Nc1nccs1)=C(/C)O | – | inactive: -22.2%
COc1ccc(C(=O)NN(C)c2nc(C(F)(F)F)nc3ccccc23)cc1 | active: 0.206 µM | –
CC(=O)c1ccc(NC(=O)c2cc(C)nn2-c2ccccc2)cc1 | inconclusive [inhibitor, single point] | –
COc1cccc(C(=O)CC(=O)C(=O)Nc2cccc([N+](=O)[O-])c2C)c1 | active: 11.6 µM | –
CC1CN(C(=O)COC(=O)c2nn(-c3ccccc3)c(=O)c3ccccc23)CC(C)O1 (stereo not given) | – | inactive: -20.3%
COc1ccc(C(=O)NNC(=O)c2ccc(C)cc2)cc1S(=O)(=O)N1CCCC1 | inconclusive [inhibitor, single point] | –
COCCN(CCOC)S(=O)(=O)c1ccc(C(=O)Nc2sc3c(c2C(=O)OC)CCN(C)C3)cc1 | – | inconclusive: -30.7% [inhibitor]
Cc1ccc2nc(CC(O)(c3ccccc3)c3ccccc3)ccc2c1 | active: 20.6 µM | –
Cc1ccc(NC(=O)c2ncn(CCCN3CCN(c4ncccn4)CC3)n2)cc1C | inconclusive [inhibitor, partial curve] | –
CCOC(=O)c1c(NC(=O)Cc2coc3cc(C)cc(C)c23)sc2c1CCC2 | – | inactive: -13.9%
NC(=O)CSc1nnc(NC(=O)c2ccc3ccccc3c2)s1 | – | inactive: -2.45%
COc1ccc(-c2nnn(CC(=O)N(C3CCCC3)C(C)C(=O)NC3CCCC3)n2)cc1OC (stereo not given) | inconclusive [inhibitor, single point] | –
COc1ccccc1/C=C/C(=O)c1c2c(c(C)[nH]c1=O)CCCC2 | inconclusive [inhibitor, single point] | –
CN(C)c1ncnc2c1ncn2C1OC(CO)C(O)C1O (stereo not given) | active: 2.91 µM | –
O=C1c2ccc(Cl)cc2S(=O)(=O)c2cccc(C(=O)N3CCN(c4ncc(Br)cn4)CC3)c21 | active: 20.6 µM | –
COc1ccc(Cn2c(=O)oc3ccc(C)cc32)cc1 | inconclusive [inhibitor, partial curve, poor fit] | –
O=C(c1ccc(Cn2cc(Cl)cn2)o1)N1CCN(Cc2ccc3c(c2)OCO3)CC1 | inconclusive [inhibitor, single point] | –
CC1(C)SC2c3ccccc3C(=O)N2[C@@H]1C(=O)NC1CCCC1 (stereo not given in full) | inconclusive [inhibitor, partial curve] | –

— PubChem BioAssay AID686978 (National Center for Advancing Translational Sciences (NCATS), 2013)
